In all, about 270,000 compounds went through this assay and about 620 (0.23%) were called active. This list was built around the results that the source calls inconclusive (neither active nor inactive); the mix of calls is not that of the screen. Calls come from the whole dose curve; as a rule, active = well fitted inhibition curve with a large enough effect in the polarisation, with a control signal flat (not every such curve was filed as active); inconclusive = small, poorly fitted or top-dose-only effect, or effect the other way, or a change in a side signal; inactive = no such curve, though single readings can be large or run the other way; the % refers to the polarisation. Potencies of inconclusive entries are doubtful fits and often do not repeat. A note “side channel” means that the fit belongs to a control or component signal, not to the main read-out.
The molecules below were run against Menin (Homo sapiens) (UniProt O00255) (assay: qHTS Assay for Inhibitors Targeting the Menin-MLL Interaction in MLL Related Leukemias: Competition With Texas Red Labeled MLL-derived Mutant Peptide). Conditions: fluorescence polarization; series mostly up to 61.6 µM.
UniProt O00255, sequence (O00255 whole entry, looked up): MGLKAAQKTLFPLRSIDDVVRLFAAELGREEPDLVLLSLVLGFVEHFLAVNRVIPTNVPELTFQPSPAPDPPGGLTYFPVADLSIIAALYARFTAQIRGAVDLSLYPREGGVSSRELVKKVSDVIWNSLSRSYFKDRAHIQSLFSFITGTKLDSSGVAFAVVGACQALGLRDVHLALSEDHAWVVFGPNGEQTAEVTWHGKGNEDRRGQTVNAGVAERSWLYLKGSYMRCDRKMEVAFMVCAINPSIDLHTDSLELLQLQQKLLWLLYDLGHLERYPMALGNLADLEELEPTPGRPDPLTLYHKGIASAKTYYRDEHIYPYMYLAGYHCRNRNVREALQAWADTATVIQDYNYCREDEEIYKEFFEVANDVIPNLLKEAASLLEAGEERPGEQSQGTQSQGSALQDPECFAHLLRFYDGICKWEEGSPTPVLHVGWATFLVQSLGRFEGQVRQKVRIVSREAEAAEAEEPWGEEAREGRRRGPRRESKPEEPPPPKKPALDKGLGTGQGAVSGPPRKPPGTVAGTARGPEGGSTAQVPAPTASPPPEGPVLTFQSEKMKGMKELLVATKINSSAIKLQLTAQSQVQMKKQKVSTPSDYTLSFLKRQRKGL
In the case of C/C(=N/NS(=O)(=O)c1ccc(Cl)cc1)c1cccc(NC(=O)c2ccc(Cl)cc2Cl)c1, the Potency is reported as inconclusive: 7.08 µM [quencher, side channel, full curve].
For CC1CCN(S(=O)(=O)c2ccc(NC(=O)Cn3nnc(-c4ccccc4F)n3)cc2)CC1, the Potency was inconclusive: 35.5 µM [inhibitor, single point].
COc1cc(C2Nc3ccccc3C(=O)N2c2ccccc2)ccc1O (stereo unspecified) was tested, and the Potency was “inactive”.
CC(C)[C@H](NC(=O)N1c2ccccc2NC(=O)[C@@H]1C(C)C)C(=O)N1CCC[C@H]1C(=O)O was tested, and the Potency was inconclusive: 39.8 µM [inhibitor, partial curve].
In the case of C/C(CC(=O)Nc1ccc(C)c(Cl)c1)=N\NC(=O)c1ccncc1, the Potency is reported as inconclusive: 11.2 µM [quencher, side channel, partial curve].
For COc1ccc(C(=O)N2CC(=O)Nc3ccc(C)cc3C2c2ccccc2)cc1 (stereo unspecified), the Potency was inconclusive: 31.6 µM [inhibitor, single point].
O=C(Nc1ccc(N2CCN(C(=O)c3ccc(Cl)cc3)CC2)cc1)c1ccc2c(c1)OCCO2 was tested, and the Potency was “inactive”.
Cc1ccc(NS(=O)(=O)c2cccc3nsnc23)cc1[N+](=O)[O-] was tested, and the Potency was inconclusive: 22.4 µM [quencher, side channel, partial curve].
COc1ccc(C2Nc3cccc4cccc(c34)N2)cc1Br was tested, and the Potency was inconclusive: 12.6 µM [quencher, side channel, partial curve].
With CCOc1cc(C(=O)NC(=S)Nc2nc(C)cc(C)n2)cc(OCC)c1OCC the Potency was inconclusive: 10 µM [inhibitor, partial curve].
For O=C(CCn1c2c(c3ccccc31)CCCC2)NNC(=O)c1ccc([N+](=O)[O-])cc1, the Potency was inconclusive: 15.8 µM [quencher, side channel, partial curve].
In the case of COC(=O)c1sc(=S)n(-c2ccccc2)c1N, the Potency is reported as “inactive”.
For Cn1c(CC(=O)Nc2ccccc2F)nnc1SCC(=O)Nc1ccccc1Br, the Potency was inconclusive: 20 µM [inhibitor, single point].
In the case of O=C(O)c1ccc(NS(=O)(=O)c2cccc(C(=O)Nc3cccc(C(=O)O)c3)c2)cc1, the Potency is reported as inconclusive: 1.41 µM [inhibitor, full curve, poor fit].
In the case of CC(C)(C)c1ccc(OCC(=O)NNC(=S)NC(=O)c2ccccc2[N+](=O)[O-])c(Br)c1, the Potency is reported as inconclusive: 39.8 µM [quencher, side channel, single point].
With Cc1cc2ccccc2c(=O)n1CC(=O)NCC(=O)N1CCN(c2cccc(Cl)c2)CC1 the Potency was inconclusive: 39.8 µM [inhibitor, single point].
With Cc1ccc(Cl)cc1NC(=S)N1CCC(c2ccccc2)C1 (stereo unspecified) the Potency was inconclusive: 39.8 µM [fluorescent, side channel, single point].
With CCCCC(=O)NCc1ccc2c(c1)cc(C)n2C the Potency was inconclusive: 28.2 µM [fluorescent, side channel, single point].
For O=C(NC1CCN(Cc2ccccc2)CC1)c1ccccc1OCc1ccccc1, the Potency was inconclusive: 35.5 µM [fluorescent, side channel, partial curve].
In the case of Cc1csc(NC(=O)c2cc3c(s2)CCC3)n1, the Potency is reported as inconclusive: 22.4 µM [quencher, side channel, single point].
In the case of Cc1ccc2nc(C)cc(C(=O)N3CCCC(CO)(Cc4ccccc4C)C3)c2c1 (stereo unspecified), the Potency is reported as inconclusive: 10 µM [fluorescent, side channel, partial curve, poor fit].
For CCn1c(-c2ccc(N(C)C)cc2)nc2ccccc21, the Potency was inconclusive: 3.16 µM [inhibitor, full curve, poor fit].
In the case of CCn1c(=O)cc(OCC(=O)NCCCN2CCC(C)CC2)c2ccccc21, the Potency is reported as “inactive”.
COc1cc2c(cc1NC(=O)CSc1ccc(Cl)cc1)oc1ccccc12 was tested, and the Potency was inconclusive: 15.8 µM [quencher, side channel, partial curve].
For O=C(NCc1ccncc1)Nc1cccc([N+](=O)[O-])c1, the Potency was inconclusive: 14.1 µM [quencher, side channel, partial curve].
With O=c1c(-c2ccc(Cl)cc2)nc2cnc(Nc3ccccc3)nc2n1C[C@H]1CCCO1 the Potency was inconclusive: 2.51 µM [quencher, side channel, single point].
O=C(Cn1c(=O)n(Cc2ccco2)c(=O)c2c3c(sc21)CCCC3)Nc1ccccc1 was tested, and the Potency was inconclusive: 28.2 µM [inhibitor, partial curve].
In the case of Oc1ccc(-c2csc(Nc3ncccn3)n2)c(O)c1, the Potency is reported as inconclusive: 3.16 µM [quencher, side channel, full curve].
For CCCCC(=O)N1CCCC(C)C1 (stereo unspecified), the Potency was inconclusive: 39.8 µM [inhibitor, single point].
CC(C)COP(=O)(c1ccc(N(C)C)cc1)C(O)c1ccccc1F (stereo unspecified) was tested, and the Potency was inconclusive: 39.8 µM [inhibitor, single point].
For COc1ccc(C(CCN2CCCC(C)C2)c2c(OC)cc(OC)c3c(-c4ccccc4)cc(=O)oc23)cc1 (stereo unspecified), the Potency was inconclusive: 2.82 µM [fluorescent, side channel, full curve, poor fit].
For Cc1csc(Nc2nc(N)c(C(=O)Nc3cc(Cl)ccc3F)o2)n1, the Potency was inconclusive: 3.98 µM [quencher, side channel, partial curve].
In the case of CCOc1ccc(-n2c(=S)sc3c(=O)n(-c4ccc(F)cc4)c(SCC(=O)O)nc32)cc1, the Potency is reported as inconclusive: 15.8 µM [quencher, side channel, partial curve].
In the case of O=C(NCCCN1CCOCC1)C1CC(=O)N(C2CCCCC2)C1 (stereo unspecified), the Potency is reported as inconclusive: 5.62 µM [inhibitor, full curve, poor fit].
With CC1(C)OC(c2ccccc2)=C/C(=C/C=C2C(=O)c3ccccc3C2=O)O1 the Potency was inconclusive: 3.16 µM [fluorescent, side channel, full curve].
With CN1C(=O)S/C(=C/c2ccccc2OCc2ccc(C(=O)O)cc2)C1=O the Potency was inconclusive: 39.8 µM [quencher, side channel, single point].
In the case of FC(F)Oc1ccc(/C=N/n2c(Cc3ccc(Br)cc3)n[nH]c2=S)cc1, the Potency is reported as inconclusive: 7.94 µM [quencher, side channel, single point].
CCN(Cc1ccccc1)C(=O)c1ccc(SC)cc1OC was tested, and the Potency was inconclusive: 14.1 µM [fluorescent, side channel, partial curve].
With O=[N+]([O-])c1ccc(O)c(Nc2ncnc3ccc(Br)cc23)c1 the Potency was inconclusive: 15.8 µM [quencher, side channel, partial curve].
In the case of O=C(O)c1ccc(N/N=C/c2ccc3ncccc3c2)cc1, the Potency is reported as inconclusive: 15.8 µM [quencher, side channel, partial curve].
CCn1cc(CN2CCCC(CO)(Cc3cccc(Cl)c3)C2)cn1 (stereo unspecified) was tested, and the Potency was inconclusive: 25.1 µM [inhibitor, partial curve].
In the case of CCCNC(=O)NCCC12CC3CC(CC(C3)C1)C2, the Potency is reported as inconclusive: 10 µM [fluorescent, side channel, partial curve].
For C=C(C)CSc1nc2sc3c(c2c(=O)n1-c1ccc(C)cc1)CCN(C)C3, the Potency was inconclusive: 39.8 µM [inhibitor, single point].
In the case of O=[N+]([O-])c1ccc(N=Nc2ccc(O)cc2O)cc1, the Potency is reported as inconclusive: 7.94 µM [quencher, side channel, partial curve].
In the case of Nc1cc(C(=O)O)ccc1Nc1ccc(F)c(F)c1, the Potency is reported as inconclusive: 17.8 µM [inhibitor, partial curve, poor fit].
Nc1nc(=S)[nH]c2c1C1(CCCCC1)Cc1ccccc1-2 was tested, and the Potency was inconclusive: 28.2 µM [inhibitor, single point].
For CCc1ccc(-n2c(=S)sc3c(=O)n(-c4ccccc4C)c(SCC(=O)O)nc32)cc1, the Potency was inconclusive: 31.6 µM [quencher, side channel, single point].
CCOC(=O)C1(Cc2ccccc2Cl)CCN(C(=O)CCn2ccnc2C)CC1 was tested, and the Potency was inconclusive: 31.6 µM [fluorescent, side channel, single point].
In the case of CCOC(=O)/C(C#N)=C/c1c(N2CCN(c3ccccc3)CC2)nc2ccccn2c1=O, the Potency is reported as inconclusive: 2.51 µM [inhibitor, single point].
NC(=O)c1ccc(C(F)(F)F)n(Cc2c(Cl)cccc2Cl)c1=O was tested, and the Potency was inconclusive: 39.8 µM [fluorescent, side channel, single point].
In the case of CCCCCCCCCCC[N+](C)(C)CC/C=C1/c2ccccc2Sc2ccc(Cl)cc21, the Potency is reported as inconclusive: 2 µM [fluorescent, side channel, full curve].
In the case of Cn1c(=O)c2c(nc(N3CCOCC3)n2CC(=O)C23CC4CC(CC(C4)C2)C3)n(C)c1=O, the Potency is reported as “inactive”.
For O=C(CN1C(=O)c2ccccc2C1=O)Nc1ccccc1, the Potency was inconclusive: 31.6 µM [quencher, side channel, partial curve].
For O=C(Nc1ccccc1C(=O)O)c1cc(S(=O)(=O)Nc2cccc(F)c2)ccc1Cl, the Potency was inconclusive: 31.6 µM [quencher, side channel, single point].
For Cc1sc2ncnc(SCC(=O)NC(C)C(C)C)c2c1C (stereo unspecified), the Potency was inconclusive: 8.91 µM [fluorescent, side channel, partial curve].
With CC(NC(=O)C(=O)NCCc1c[nH]c2ccccc12)c1ccccc1 (stereo unspecified) the Potency was inconclusive: 28.2 µM [inhibitor, single point].

Source: PubChem BioAssay AID1768 (National Center for Advancing Translational Sciences (NCATS), 2009)
Potency is the fitted concentration of half-maximal effect; tags give direction and shape of the fitted curve or compound fluorescence and quenching.
